Reference: the supplement of paper PMC3334620
Whole data set: some 33,000 sequences, median “E-score (-0.5 to 0.5)” near -0.041, cut for the highest 2% near 0.37. The list shows a part of the results.

Molecular target: T1, Ecm22 (UniProt Q05958)
T1 sequence: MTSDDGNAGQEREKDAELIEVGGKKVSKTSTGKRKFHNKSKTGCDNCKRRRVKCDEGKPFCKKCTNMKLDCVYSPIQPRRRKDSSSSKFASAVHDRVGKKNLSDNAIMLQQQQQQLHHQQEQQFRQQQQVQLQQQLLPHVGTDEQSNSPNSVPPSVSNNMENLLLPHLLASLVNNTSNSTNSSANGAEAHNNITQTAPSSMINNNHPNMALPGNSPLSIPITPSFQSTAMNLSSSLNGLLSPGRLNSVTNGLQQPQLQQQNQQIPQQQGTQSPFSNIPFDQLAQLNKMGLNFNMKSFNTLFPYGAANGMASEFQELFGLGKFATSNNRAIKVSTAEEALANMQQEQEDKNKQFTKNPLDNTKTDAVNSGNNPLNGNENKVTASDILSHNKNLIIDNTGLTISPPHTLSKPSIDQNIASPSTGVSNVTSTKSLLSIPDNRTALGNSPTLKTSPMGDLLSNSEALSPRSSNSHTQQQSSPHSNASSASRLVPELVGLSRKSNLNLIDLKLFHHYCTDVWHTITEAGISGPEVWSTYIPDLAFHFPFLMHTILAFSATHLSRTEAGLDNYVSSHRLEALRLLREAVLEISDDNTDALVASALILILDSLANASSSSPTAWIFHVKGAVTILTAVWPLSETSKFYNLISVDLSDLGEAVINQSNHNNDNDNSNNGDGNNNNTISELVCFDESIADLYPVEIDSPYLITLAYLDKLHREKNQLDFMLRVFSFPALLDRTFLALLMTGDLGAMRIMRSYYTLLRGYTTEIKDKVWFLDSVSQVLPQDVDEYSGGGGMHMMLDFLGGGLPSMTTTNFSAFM
Test: PBM E-score (8-mer binding enrichment) (E-score (-0.5 to 0.5)); higher = stronger / more preferred TF binding; most listed sequences are background and not binding sites
Settings: protein concentration: 200 nM; construct: GST-full length
Protocol: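 Universal 'all 10-mer' protein binding microarrays (Agilent AMADID 015681) probed with GST-tagged S. cerevisiae TFs (full-length or DBD) made by in vitro transcription/translation (PURExpress), about 100-200 nM. Bound TF was detected with fluorescent anti-GST. Each ungapped 8-mer (which stands for itself and its reverse complement) is scored by the PBM enrichment score (E-score), a modified Wilcoxon-Mann-Whitney statistic from -0.5 to +0.5, computed with the Universal PBM Analysis Suite. Scale: above 0.35 generally sequence-specific binding.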

Sequence	PBM E-score
ATCAGATA	0.0184
AGACTAGG	-0.128
AACCTCGT	0.323
ATCTTAGG	-0.238
AGGGAAAT	-0.142
CGGCAACC	-0.082
ACTACTTC	0.0171
CAGTCTAC	-0.164
GATATATA	0.179
CGCTATGC	0.00717
TGCTCTAA	-0.129
AGGCGCAG	-0.21
GGCTTCTA	-0.173
ACACCACC	-0.222
GCCATTCC	-0.238
ATTCTGTG	0.00651
GACCGCTA	0.0611
TAACATAA	0.0953
GGTATAAA	0.2
CCTTCATC	-0.0839
GAATGCTA	-0.0657
ATACGGTC	0.383
ATTGGTTC	-0.0563
ATTGCGCA	0.0363
GGACTCGA	-0.0322

Sequence	PBM E-score
TACCACGA	0.0887
CGAAGCTC	-0.0222
GATCGAGA	0.18
CAAAACCG	0.0779
CGGAATGA	-0.0548
AGACAGAG	-0.0916
ATGCAGCC	-0.129
AAGCGAGG	0.338
CGACACAC	0.257
CATTCCAG	-0.289
GGAACCCA	-0.147
AGTGTGGC	-0.0286
ATGTGGCC	-0.268
CATTGTTA	-0.0797
CTCTCTGA	-0.21
CTAACCGA	0.372
CCTTCGCG	0.0868
CATTATGG	-0.221
CGCATGGA	-0.0687
ATCTTGTC	-0.0519
GACTGGCA	-0.254
AGCAATCG	0.0827
CAATTGGG	-0.184
AGGATTGA	-0.189
CTGGGCGC	-0.28

Sequence	PBM E-score
ACCCAATC	-0.136
AGAACCAA	-0.0644
CCCGCTCA	0.0492
ATGGCCGG	-0.208
AGAAGGAG	-0.261
GAGTGATA	0.174
AACGCCAA	0.0935
AAACTCAG	-0.216
CGCCCGAA	0.0388
CCACCATC	-0.281
ATTCCATA	0.0992
TGGGCTAA	-0.163
AGGAGCCC	-0.197
AAGTCGAC	-0.0411
AACGGTCG	0.292
CCTCGGCG	0.156
AAAACACA	-0.0145
AAAAAAAG	-0.171
CCTCAGTC	-0.146
CTTCAACA	-0.202
GATGAAAA	0.0642
AGGGCGCG	-0.0881
AGCAATTC	-0.0108
CTTCTTAA	0.00805
AAATGCTC	-0.0255

Sequence	PBM E-score
ACGGGGTG	0.136
AGATTGGG	-0.154
CCTTCACC	-0.31
TGAATTAA	0.099
CAACTATA	0.0314
ACCGTCCA	-0.105
AGGAATTC	-0.133
AAAACGCT	-0.043
CAACGGTG	0.046
ATGCAGCA	-0.0375
CACCGCGA	0.0513
ACGTCAAT	0.0195
AAAATTTC	-0.0329
GATCGCCC	0.0885
ACTAGGTC	0.0604
ATTACCCA	-0.16
AATGTTTA	-0.0608
CGATTTAC	0.166
TCTTATCA	0.0547
ACGAGCCG	0.389
CGACGGCC	0.19
ACAAGCTA	-0.0235
ATGCACGC	-0.0896
CGTACAAC	0.434
ACATTTCG	0.105

Sequence	PBM E-score
GTCCTGCA	-0.334
CCCCCCGA	-0.244
ATGGTCCG	0.178
CAAGAAAC	-0.178
ACATCAGT	-0.159
CGGTGTTA	0.0882
ATGCGGGC	-0.0483
ATGAGTAG	-0.0787
CGAGACAG	0.199
ACGTTGTC	-0.015
GAAAGTTA	0.0522
AATAAACT	-0.0489
GACCTATC	-0.0499
GCCCTAGA	-0.103
CATGAGCG	0.0595
AAGCACGC	-0.0404
TCCTACAA	0.0334
AGTCGCAG	-0.0565
ACCAGGCT	-0.198
GGTTGGAA	0.0236
TGCCCACA	-0.309
GGCCACTA	-0.248
CAACCCAA	-0.165
GCCCCGTA	0.26
ACTCGGAA	0.184

Sequence	PBM E-score
TTCAGCAA	-0.0214
ACAACCGC	0.111
TATCGGCA	-0.053
CCCCAATC	-0.247
ACCGCTCA	0.0795
GGGCCCAC	-0.0197
ATTTCGAC	0.0102
CGTCGCTC	0.33
AATTTGAT	-0.0969
CGGGAGTA	0.077
GCAACAGC	-0.242
GTCATGAC	0.0454
ACCAAATG	-0.136
CGAAACAA	0.25
ACCCTAGT	-0.292
AAGAGCGA	0.286
GAAACTCA	-0.0057
GCAATCCA	-0.177
CGGATAAG	0.0485
AATCTCGA	0.0888
CGTGGCCC	-0.0808
CGACTGCG	0.081
GGGGTGCA	-0.0228
ACCATATA	0.238
CAAACGGA	0.202

Sequence	PBM E-score
ACACTGCG	0.0708
CTACCTCC	0.0237
AAGGAGGG	-0.132
AAAGTGCA	-0.133
ACCCATAC	0.0198
ACTGCCCT	-0.185
AAAAAGGC	-0.14
GACTTGTA	-0.0504
TCCAGACA	-0.136
AGCCCAGG	-0.341
CCTCCTCA	-0.138
AACTGAGT	-0.138
AGACACGC	0.13
AATGGTAT	-0.174
GAGACGCC	0.0333
GTAACTCA	-0.059
ATCAAAGC	-0.0724
ACAGCTGT	-0.202
TAGCGAAA	0.191
TAGCTACA	-0.096
TCGGCCGA	0.0486
TCACCGGA	-0.0436
